The other results are listed elsewhere or left out. Where only a bound is given, the exact number is not on record here.

For the experiment, the system named is T1, Caupolican (Caup) homeodomain DNA-binding domain.
T1 sequence: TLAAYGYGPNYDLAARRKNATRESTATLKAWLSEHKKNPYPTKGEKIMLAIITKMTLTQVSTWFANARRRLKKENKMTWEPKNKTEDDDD
Description: PBM E-score (8-mer, recovered from the published 9-mer minima) (E-score (dimensionless, -0.5 to 0.5)); Drosophila protein; higher = stronger relative binding preference, active = 0.31 or more. A digest of the protocol: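 Caup's homeodomain DNA-binding domain (residues 214-303) was made by in vitro transcription and translation and applied at 100 nM to custom-designed protein binding microarrays. Each value is an enrichment score that gives relative binding preference for a short DNA word, with higher meaning stronger. The 8-mer values were recovered from published 9-mer scores, each of which was the minimum of its two constituent 8-mer scores. A cutoff of 0.31 marks candidate sites.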
Take AACGAGCT: the “PBM E-score” value is inactive: 0.0667.
Next, CTGTATGA: inactive: 0.0638; ACGTAGAG: inactive: -0.0582.
Next, CGATCCGA: inactive: -0.00075.
The value for CTGCGCAA was inactive: -0.0685; that for CAAAACAC was inactive: 0.145.
Regarding TAACTACA, the “PBM E-score” value was active: 0.348.
Next, CACCCTCC: inactive: -0.204.
Take GACAGGAA: the “PBM E-score” value was inactive: 0.209.
Next, CACCCTGA: inactive: -0.0659; ACCATTCT: inactive: -0.0332.
Next, GTGCGTTA: inactive: -0.0593; TGATACAA: inactive: 0.233.
Next, ACTCCCAC: inactive: -0.0626.
As to GATGGCCA, the “PBM E-score” value is inactive: -0.0559.
The value for CGATGTGC was inactive: -0.0367; that for CAGTGTGA was inactive: 0.123; that for GTCAACGA was inactive: 0.118.
The value for CGACCTGC was inactive: -0.145; that for ACCCCTAT was inactive: -0.0378; that for AAGATGAA was inactive: 0.0239.
ATCAAGAA: the “PBM E-score” value is inactive: 0.133.
Next, AGTATCCA: inactive: 0.0214; CAACCTCC: inactive: -0.103.
The value for AGCTACTG was inactive: -0.0037; that for TGATTACA was inactive: 0.284; that for TAACGCCA was inactive: -0.0503.
Next, GCGGCCAC: inactive: -0.241; CTACACCC: inactive: 0.104; CGGTCGCC: inactive: -0.279.
For the sequence CGCACGGA, the “PBM E-score” value is inactive: -0.18.
GAGATTAC: the “PBM E-score” value was inactive: 0.0643.
Next, TCGCACCA: ≥ 0.0265; ATCCCTCC: inactive: -0.115; CGTGTAAC: active: 0.321.
Next, GACGAAGA: inactive: -0.0415.
The value for ATAATTGA was ≥ 0.167.
Turning to TAGTGCGA, the “PBM E-score” value was ≥ 0.0169.
The value for CCCTCGCG was inactive: -0.259; that for TAGCTTGA was inactive: -0.0181; that for CTGAGGGC was inactive: -0.252.
With ATAAATAT, the “PBM E-score” value is inactive: 0.172.
As for ACCACACT, the “PBM E-score” value was inactive: 0.0151.
The value for TTACCCAA was inactive: 0.0239; that for CGGTATCC was inactive: -0.103; that for TGGAATAA was inactive: 0.0297.
The value for ATAGGAGG was inactive: -0.148; that for GCTCGCTA was inactive: -0.00463; that for AGTACCAT was ≥ 0.23.
As to AGTGAGAA, the “PBM E-score” value is inactive: -0.0861.
Next, ATTGAAGA: inactive: 0.0635; ATCCTCAC: inactive: -0.0239.
Next, ACAGTCCT: inactive: -0.0197.
Next, AAACCTCG: inactive: -0.112; AGCGCGCG: inactive: -0.06.
On to AATTCACT, for which the “PBM E-score” value was inactive: 0.06.
Next, ACAACCGA: inactive: 0.212; CGACCGTC: inactive: -0.138.
Next, AGCTACCC: inactive: -0.109; CAGACATG: inactive: 0.28; ATTATGCC: inactive: 0.041.
Next, ACCCGAAT: inactive: 0.0206; CGCACTCC: inactive: -0.186.
For the sequence AATTTTTC, the “PBM E-score” value is inactive: 0.0927.
The value for CTGATAAC was inactive: 0.111.
Regarding ATCTAAAA, the “PBM E-score” value is inactive: 0.00698.
Regarding AGGCGTAC, the “PBM E-score” value is inactive: 0.0617.
Next, ACGGAGCC: inactive: -0.287.
Next, CCTAATGC: inactive: 0.00047; AACGGACA: inactive: 0.156.
The value for TAATACTA was ≥ 0.221.
With ACTGACTG, the “PBM E-score” value was inactive: -0.057.
The value for CCATAAAG was inactive: -0.0873; that for AGACGCAT was inactive: -0.0367.
Next, ATCTTGCC: inactive: -0.021; GGATACAC: inactive: 0.154; CACAATCA: inactive: 0.052.
The value for ATCCGCAC was inactive: -0.121; that for GAAAATTC was inactive: -0.00014.
Consider TCCTCGAA, for which the “PBM E-score” value was inactive: -0.013.
The value for ACCTCGGC was inactive: -0.245; that for ACAGTGCC was inactive: -0.0604; that for ACTTGTAG was inactive: 0.297.
The value for GACTTAGC was inactive: -0.0818; that for CGTAAGGC was inactive: -0.0394.
The value for CGTTCGCC was inactive: -0.101; that for CAGGGGAA was inactive: -0.133; that for CTAGTTTC was inactive: 0.0215.
Turning to GAACCGCC, the “PBM E-score” value was inactive: -0.183.
Next, TCCCCGGA: ≥ -0.103; AACCAGTA: inactive: 0.114; TACACACA: inactive: 0.284.
The value for CTAACAAA was inactive: 0.169.
Next, GTGCATGA: inactive: 0.129; CGTCGATC: inactive: 0.065; CTCATCGC: inactive: -0.0448.
With ACCATAGA, the “PBM E-score” value was inactive: -0.0446.
The value for GGCGTGCA was inactive: -0.0859.
Consider GCTAACAA, for which the “PBM E-score” value is inactive: 0.192.
The value for GTAACAAC was active: 0.341.
The value for AAGTCTTA was inactive: 0.0512; that for AAACTGAT was inactive: 0.0804; that for CTCAGTTC was inactive: -0.0141.
Next, AGGCACGG: inactive: -0.179.
For GCCTACCA, the “PBM E-score” value was inactive: -0.146.
The value for CACACCTG was inactive: -0.0345; that for ATAATGAG was inactive: 0.0535; that for TCTTCAAA was inactive: 0.0437.
Next, ATCCCTTA: inactive: 0.0322; ATCTGTCG: inactive: 0.099.
For CCATGCTA, the “PBM E-score” value was inactive: 0.102.
In the case of CATGTTGA, the “PBM E-score” value is active: 0.38.
Next, GCCGTCTA: inactive: -0.119; AGATTGAT: inactive: 0.0423; GCATAGTA: inactive: 0.141.
The value for AAGACGTG was inactive: 0.0275; that for AAGGAGCG was inactive: -0.123; that for GTCTGGAA was inactive: -0.00114.
Next, GACGTTAC: inactive: 0.0391; GATATGCA: inactive: 0.0393.
Consider CAATGTGC, for which the “PBM E-score” value is inactive: 0.0278.
As to ACGGATCC, the “PBM E-score” value was inactive: -0.141.
Next, ATGATCGA: inactive: 0.0925; AAGATGGC: inactive: -0.0976.
The value for AATTCACC was inactive: 0.0329; that for GATATCCC was inactive: -0.018.
With GCGACATA, the “PBM E-score” value was inactive: 0.242.
The value for AGGGTACC was inactive: -0.158; that for AGGTTTAT was inactive: 0.0931.
The value for GTGTGATA was ≥ 0.212; that for GTGCAACA was inactive: 0.208; that for TACCCTAA was inactive: 0.0159.
Next, GAAGTAAC: inactive: 0.0896; TGCCATAA: inactive: -0.0447; CGGGGAAA: inactive: -0.129.
Turning to CACTTACC, the “PBM E-score” value was inactive: 0.0417.
The value for AGTAGAAA was inactive: 0.0433; that for CAACTTAA was inactive: 0.133; that for CCTGTGCG was inactive: -0.0874.
The value for CGATGTTA was inactive: 0.297; that for AGAACCGA was inactive: -0.088; that for GCGACCAC was inactive: -0.14.
Next, CAGAACCC: inactive: -0.153.

The record behind these values is the supplement of paper PMC3724861.
